Article PMC4336329 (PLoS ONE, 2015)
The campaign covered roughly 310,000 compounds. About 2,200 (0.71%) showed an effect of 50% or more. The effect is printed as a negative number. Some of the results follow.

target: human ether-à-go-go-related gene (hERG) potassium channel (human, UniProt Q12809); assay: primary screen, population patch clamp on CHO cells stably expressing hERG
Sequence (Q12809 whole entry, looked up): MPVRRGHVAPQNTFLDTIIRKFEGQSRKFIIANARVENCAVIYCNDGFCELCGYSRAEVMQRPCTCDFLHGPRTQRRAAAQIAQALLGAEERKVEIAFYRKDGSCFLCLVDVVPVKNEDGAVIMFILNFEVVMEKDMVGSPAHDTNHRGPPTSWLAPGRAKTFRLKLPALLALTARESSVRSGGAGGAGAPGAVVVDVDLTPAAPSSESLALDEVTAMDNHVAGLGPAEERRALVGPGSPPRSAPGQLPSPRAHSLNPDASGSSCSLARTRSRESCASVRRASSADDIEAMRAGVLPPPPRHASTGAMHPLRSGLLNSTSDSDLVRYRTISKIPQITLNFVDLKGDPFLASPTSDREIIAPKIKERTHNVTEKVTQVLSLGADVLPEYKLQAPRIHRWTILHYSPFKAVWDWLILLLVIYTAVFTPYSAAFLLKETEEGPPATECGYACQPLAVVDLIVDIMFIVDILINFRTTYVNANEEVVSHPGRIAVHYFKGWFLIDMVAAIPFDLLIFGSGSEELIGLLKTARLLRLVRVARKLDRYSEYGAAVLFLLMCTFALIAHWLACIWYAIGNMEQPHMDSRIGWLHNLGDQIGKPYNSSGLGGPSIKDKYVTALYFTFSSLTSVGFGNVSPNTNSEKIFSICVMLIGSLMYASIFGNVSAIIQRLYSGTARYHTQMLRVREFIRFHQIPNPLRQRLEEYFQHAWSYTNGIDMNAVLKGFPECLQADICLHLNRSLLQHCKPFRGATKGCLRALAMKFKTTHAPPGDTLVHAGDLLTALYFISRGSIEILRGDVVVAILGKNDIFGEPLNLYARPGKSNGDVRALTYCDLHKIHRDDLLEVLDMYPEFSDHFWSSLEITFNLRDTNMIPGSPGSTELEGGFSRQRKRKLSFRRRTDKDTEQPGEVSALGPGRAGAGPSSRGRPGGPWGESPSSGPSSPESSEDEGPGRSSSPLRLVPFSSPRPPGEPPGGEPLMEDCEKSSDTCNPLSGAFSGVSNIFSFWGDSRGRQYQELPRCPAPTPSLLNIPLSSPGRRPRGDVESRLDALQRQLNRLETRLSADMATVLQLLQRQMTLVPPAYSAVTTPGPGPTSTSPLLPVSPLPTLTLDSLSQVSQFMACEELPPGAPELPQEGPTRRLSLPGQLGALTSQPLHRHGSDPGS

In order of rising “hERG current change (%, negative = inhibition) at 1uM” value:
1. CCOC(=O)COc1ccc(S(=O)(=O)N2CCN(c3ccc(F)cc3)CC2)cc1  -15.5%
2. Cc1csc(NC(=O)CSc2nc(=O)n(CCN(C)C)c3c2CCCC3)n1  -15.3%
3. Cc1cc(NC(=O)c2cc(-c3ccco3)on2)nn1Cc1ccc(Cl)cc1  -12.8%
4. Nc1ccc(N=Nc2ccccc2)cc1  -11.2%
5. CCc1nc(N(CC)CC)c2oc3ccccc3c2n1.Cl  -10.3%
6. Cc1c(Br)c([N+](=O)[O-])nn1C(C)C(=O)NCc1cccnc1 (stereo not shown)  -7.67%
7. COc1ccc(S(=O)(=O)Nc2ccc3c(c2)COC3=O)cc1OC  -7.58%
8. Nc1ccccc1SCC1CSc2nc3ccccc3c(=O)n21 (stereo not shown)  -7.26%
9. O=C(O)C(=O)O.O=S(=O)(c1ccccc1F)N1CCN(Cc2nc3ccccc3[nH]2)CC1  -6.09%
10. CCOC(=O)N1CCN(S(=O)(=O)c2ccc3c(c2)CCN3C(=O)C2CC2)CC1  -6.05%
11. CCOc1cc(/C=N/NC(=O)c2ccc(CN3CCOCC3)cc2)ccc1OCc1ccccc1  -5.56%
12. CCCn1c(=O)c(C(=O)NCc2ccncc2)c(O)c2ccccc21  -5.39%
13. COc1ccc2oc(C(=O)N3CCN(C(c4ccccc4)c4ccccc4)CC3)c(C)c2c1  -5.15%
14. O=C(COC(=O)c1c(Cl)cccc1Cl)Nc1cccc(S(=O)(=O)NC2=NCCCCC2)c1  -5.08%
15. COc1ccc(C(=O)Nc2nc(CC(=O)NCCc3ccccc3)cs2)cc1  -3.84%
16. Cc1cc(C(=O)NCCC2=CCCCC2)no1  -2.61%
17. COc1ccc(N(CC(=O)NCCSC2CCCCC2)S(C)(=O)=O)c(OC)c1  -1.96%
18. CCS(=O)(=O)n1nc(-c2ccccc2)nc1SC  -1.66%
19. CCC(C)n1c(S(=O)(=O)O)nc2ccccc21 (stereo not shown)  0.328%
20. CC(=O)c1ccc(OCC(C)Oc2ccc(C#N)cc2)cc1 (stereo not shown)  1.45%
21. COCCN1CN=C(NS(=O)(=O)c2ccc(C)cc2)NC1  1.53%
22. CCn1cc(C(=O)N2CCN(c3ccccn3)CC2)c2cc(OC)c(OC)cc2c1=O  2.06%
23. Cc1ccccc1-n1c(SCC(=O)c2cc(C)n(C)c2C)nnc1-c1ccncc1  2.14%
24. COc1cc(NC(=O)C/C(C)=N/NC(=O)c2ccccn2)c(OC)cc1Cl  2.16%
25. Cc1noc(NS(=O)(=O)c2ccc(NC(=O)CSc3nnc(-c4ccccc4)n3C3CCCCC3)cc2)c1C  2.36%
26. CC(C)=CCN1CCN(Cc2ccc(C)s2)CC1CCO (stereo not shown)  3.12%
27. Cn1c(=O)c2c(nc(SCCCC#N)n2Cc2ccccc2F)n(C)c1=O  3.53%
28. S=C(NCc1ccccc1Cl)Nc1ccccc1Cl  3.62%
29. Cc1ccc(C2=NCC(=O)N(CC(=O)N3CCCCC3)c3sc(C)c(C)c32)cc1  3.68%
30. O=[N+]([O-])c1ccc(C[n+]2cccc(O)c2)cc1.[Br-]  3.9%
31. CCOc1ccc(C(=O)NC(=S)Nc2ccccn2)cc1[N+](=O)[O-]  3.95%
32. CN(C)c1nc(OCCNC(=O)COc2ccccc2Cl)nc(N(C)C)n1  4.17%
33. CCc1c(C)c(C#N)c2nc3ccccc3n2c1-n1nc(C)cc1C  4.29%
34. CC(=O)Nc1scc(C)c1-c1nc2ccccc2s1  4.95%
35. NS(=O)(=O)c1ccc(-c2ccc(/C=N/NC(=O)c3ccccc3O)o2)cc1  5.47%
36. COc1ccccc1OCCC(=O)N1CCN(c2ccccc2OC)CC1  5.54%
37. O=C(CN1C(=O)NC2(CCCCC2)C1=O)Nc1cc(C(F)(F)F)ccc1N1CCCCC1  5.79%
38. COC(=O)CCCC(=O)NC1CC(C)(C)Cc2c1cnn2-c1ccc(C)cc1 (stereo not shown)  5.99%
39. COCC(=O)Nc1sc2c(c1C(=O)OC)C(C(=O)OC)CC2 (stereo not shown)  6.15%
40. CC(=O)c1ccc(NC(=O)CN2CCC(C(=O)c3ccc(F)cc3)CC2)cc1  6.3%
41. O=C(Nc1ccccc1-c1nc2ccccc2[nH]c1=O)c1cccs1  6.31%
42. CNC(=S)N1CCN(c2cccc(OC)c2)CC1  7.07%
43. CC(C)/C=C/C(=O)N1CCCC(N2CCN(c3ccccc3F)CC2)C1 (stereo not shown)  7.09%
44. Cc1ccc(-c2ccccc2)n1-c1ccc(C(=O)O)cc1  7.42%
45. CCOc1ccc(OCC)c(NC(=O)CNS(=O)(=O)c2cccs2)c1  7.48%
46. Cc1cc(C)nc(SCC(=O)NC2=NC(=O)C(C)S2)n1 (stereo not shown)  7.54%
47. O=C(O)C1Nc2ccc(Br)cc2C2C=CCC12 (stereo not shown)  7.54%
48. CCOc1ccc(NC(=O)CN(C)C(=O)c2cc(C)nc3ccccc23)cc1OCC  7.56%
49. O=C(CNC(=O)c1ccccc1)N/N=C/c1cc(Br)ccc1O  7.62%
50. COC(=O)c1ccc(NC(=O)COC(=O)C2CCC2)cc1  8.03%
51. Cc1oc2cc3oc(=O)c(CC(=O)NCC(=O)N[C@@H](C(=O)O)c4ccccc4)c(C)c3cc2c1C  8.06%
52. COc1cc(/C=C2\SC(=Nc3ccccc3OC)NC2=O)ccc1O  8.45%
53. CN1CCN(c2oc(Cc3cccc4ccccc34)nc2C#N)CC1  8.5%
54. O=C1CC(c2ccccc2)CC(O)=C1C=NCCCO (stereo not shown)  8.58%
55. C[N+]1(CC(O)COc2ccccc2)CCN(C(=O)c2ccc([N+](=O)[O-])cc2)CC1.[I-] (stereo not shown)  8.72%
56. CCOC(=O)c1c(NC(=O)CNC2CCCCC2)sc(C)c1C  9.04%
57. COc1ccc(C(=O)O/N=C(\N)c2ccccc2)c(OC)c1  9.09%
58. CC(NC(=O)C1CCN(C(=O)c2cccs2)CC1)c1ccc(S(N)(=O)=O)cc1 (stereo not shown)  9.45%
59. Cn1cccc1Cc1nnc(SCC(=O)NCc2ccccc2)n1-c1ccc(F)cc1  9.69%
60. CC(=O)c1ccc(OCCNS(=O)(=O)c2ccc(-n3cnnn3)c(C)c2)cc1  10.2%
61. COc1ccc(OC)c(C(=O)NC(CC(N)=O)c2ccc(NCCN3CCCC3)c([N+](=O)[O-])c2)c1 (stereo not shown)  10.2%
62. Cc1ccc(S(=O)(=O)N2CCN=C2SCc2ccc(Cl)c(Cl)c2)cc1  10.2%
63. COCCNC(=O)C1CCCN(c2ncccn2)C1 (stereo not shown)  10.3%
64. Cc1ccc(C)n1-c1ccc(-c2ccn[nH]2)cc1  10.5%
65. CC(C)(C)c1ccc(C(=O)N/C(=C\c2ccco2)C(=O)O)cc1  10.6%
66. COc1cc(/C=N/NC(=O)c2ccncc2)c([N+](=O)[O-])cc1OC  10.8%
67. CN1CCN(c2nc(Nc3cccc(C(F)(F)F)c3)nc(N3CCOCC3)n2)CC1  11.1%
68. CCC(O)CNc1nc(-n2nc(C)cc2C)nc2sc3c(c12)CC(C)(C)OC3 (stereo not shown)  11.2%
69. CC(CC(=O)NCc1ccccc1)C1CCCO1 (stereo not shown)  11.3%
70. CCCC(C)NC(=O)COC(=O)c1ccc(Cl)c(S(N)(=O)=O)c1 (stereo not shown)  11.4%
71. CCN(CC(=O)Nc1ccccc1C(F)(F)F)C(=O)CCc1nc2ccccc2c(=O)[nH]1  11.6%
72. COc1cc(/C=C2/C(=O)c3cccc([N+](=O)[O-])c3C2=O)c(Br)cc1O  11.7%
73. CC(C)(C)c1ccc(C(=O)NCc2ccco2)cc1  11.7%
74. Cc1nnc(SCC(=O)Nc2cc(C(F)(F)F)ccc2Cl)n1C  12%
75. COc1cccc(/C=N/Nc2ccc([N+](=O)[O-])cc2)c1O  12.6%
76. CCC(Oc1cccc(C)c1)C(=O)Nc1ccccc1C(=O)N1CCOCC1 (stereo not shown)  13.4%
77. O=C(CSC1c2ccccc2-c2ccccc21)N/N=C/c1ccccc1O  13.5%
78. CC(C)[C@H](NC(=O)c1cc2cc(Cl)ccc2n1C)C(=O)N1CCC(C(=O)O)CC1  14.9%
79. Cc1noc(C)c1COc1ccc(C(=O)OCC(=O)NCc2ccccc2Cl)cc1  15.3%
80. CCCCOc1ccc([N+](=O)[O-])cc1C(=O)O  15.3%
81. COc1ccc(-c2ccc(-c3noc(-c4ccccc4OC)n3)c(OC)n2)cc1  16.8%
82. CC1=[N+](CC(=O)NC(C)(C)C)CCc2ccccc21.[Cl-]  17.5%
83. O=C(CCN1C(=O)[C@@H]2Cc3ccccc3CN2C1=O)NCc1ccccc1  17.8%
84. Cn1c(/C=C/c2ccc(Cl)cc2)nc2ccccc2c1=O  19%
85. COc1ccc2nc(C)cc(SCC(=O)N/N=C/c3c(OC)ccc4ccccc34)c2c1  19%
86. NNC(=O)COc1ccc2oc3c(c2c1)CCCC3  20.5%
87. CC(=O)C1=C(O)C(=O)N(c2ccc(C(=O)O)cc2)C1c1ccc([N+](=O)[O-])cc1 (stereo not shown)  21%
88. Cc1cc(C(=O)COC(=O)COc2ccc(C#N)cc2)c(C)n1C1CC1  25.9%
